# Assay results taken from PMC4336329 (PLoS ONE, 2015).
# In all, about 310,000 compounds went through this assay and about 2,200 (0.71%) showed an effect of 50% or more. Effects have a minus sign here. Some of the results follow.
# Molecular target: human ether-à-go-go-related gene (hERG) potassium channel (human, UniProt Q12809)
# Assay: primary screen, population patch clamp on CHO cells stably expressing hERG
# Chain of human ether-à-go-go-related gene (hERG) potassium channel (Q12809 whole entry, looked up): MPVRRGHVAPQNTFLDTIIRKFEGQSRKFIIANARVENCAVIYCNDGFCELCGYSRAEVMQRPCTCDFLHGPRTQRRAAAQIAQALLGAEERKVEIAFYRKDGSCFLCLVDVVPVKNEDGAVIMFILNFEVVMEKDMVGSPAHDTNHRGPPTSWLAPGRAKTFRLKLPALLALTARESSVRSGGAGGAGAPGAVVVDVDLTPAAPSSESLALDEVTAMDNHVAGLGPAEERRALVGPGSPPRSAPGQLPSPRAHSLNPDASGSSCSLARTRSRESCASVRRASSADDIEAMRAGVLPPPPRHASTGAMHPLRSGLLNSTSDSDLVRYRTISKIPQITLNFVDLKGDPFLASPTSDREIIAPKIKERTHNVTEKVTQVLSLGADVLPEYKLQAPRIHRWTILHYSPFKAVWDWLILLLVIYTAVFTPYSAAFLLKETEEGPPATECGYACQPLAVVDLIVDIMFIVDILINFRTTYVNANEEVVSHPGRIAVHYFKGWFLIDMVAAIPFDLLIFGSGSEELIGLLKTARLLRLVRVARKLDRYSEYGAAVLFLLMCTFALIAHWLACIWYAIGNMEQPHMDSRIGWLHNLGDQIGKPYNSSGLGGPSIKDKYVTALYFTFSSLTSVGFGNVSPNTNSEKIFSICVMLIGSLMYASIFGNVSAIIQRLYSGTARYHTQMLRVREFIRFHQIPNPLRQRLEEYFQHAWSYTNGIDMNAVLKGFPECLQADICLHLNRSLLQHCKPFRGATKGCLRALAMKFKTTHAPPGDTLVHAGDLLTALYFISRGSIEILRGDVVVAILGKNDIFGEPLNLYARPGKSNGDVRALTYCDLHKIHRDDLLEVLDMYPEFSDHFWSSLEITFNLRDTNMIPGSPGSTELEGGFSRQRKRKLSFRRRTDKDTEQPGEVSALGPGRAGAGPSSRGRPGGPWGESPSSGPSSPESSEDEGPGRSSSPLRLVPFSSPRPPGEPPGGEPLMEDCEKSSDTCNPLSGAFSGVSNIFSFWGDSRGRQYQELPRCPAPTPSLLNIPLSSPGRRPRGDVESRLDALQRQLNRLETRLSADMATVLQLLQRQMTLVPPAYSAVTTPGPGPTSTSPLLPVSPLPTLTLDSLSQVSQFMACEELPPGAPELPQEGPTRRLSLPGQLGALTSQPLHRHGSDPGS
row,SMILES,"hERG current change (%, negative = inhibition) at 1uM [%]"
1,CCCCN(CC)C(=O)c1ccc2c(c1)OCO2,12.8
2,O=C(NCc1ccc(Cl)cc1)c1ccc(Cn2cc(C(F)(F)F)ccc2=O)cc1,13.1
3,COc1ccc(O)c(/C=N/N=C2/C(=O)Nc3ccccc32)c1,0.714
4,CC1(C)CC(=O)C2=C(C1)OC1=C(C(=O)CC(C)(C)C1)C2c1cc([N+](=O)[O-])cc([N+](=O)[O-])c1O,13.6
5,COc1ccc(-c2cc(-c3cc(C)ccc3O)[nH]n2)cc1,13.3
6,CCOc1ccccc1/C=N/Nc1ccccc1[N+](=O)[O-],1.57
7,CC(C)OP(=O)(Oc1ccc(C(O)C(Cl)(Cl)Cl)cc1)OC(C)C (centres unmarked),12.7
8,O=[N+]([O-])C(=c1ccc2c(c1)N1C3=C(CCCC3)CC3CCCCC31N=2)[N+](=O)[O-] (centres unmarked),5.52
9,COc1ccc(CNC(=O)c2cnn3c(C(F)F)cc(C)nc23)cc1,16.4
10,Cc1ccc2cc3c(NC(=O)c4ccco4)nn(C)c3nc2c1,12.1
11,CCOc1ccccc1C(=O)N(Cc1ccccc1)Cc1cc2cc3c(cc2[nH]c1=O)OCCO3,7.8
12,CCCS(=O)(=O)c1cnc(C2COc3ccccc3O2)nc1N (centres unmarked),11.6
13,COc1cc(OC)cc(C(=O)Nn2c(C)nc3ccccc3c2=O)c1,13.6
14,CCCCCn1c(SCc2cccc(C)c2)nc2c1c(=O)[nH]c(=O)n2C,15.7
15,COc1cc(NC(=O)COc2ccccc2[N+](=O)[O-])ccc1NC(=O)c1ccco1,5.2
16,CCc1c(C)sc(NC(=O)c2cc(-c3ccc(OC)c(OC)c3)on2)c1C#N,11.7
17,O=C(NCC1CCCO1)C1CCN(C2CCN(Cc3ccco3)CC2)CC1 (centres unmarked),-2.26
18,O=C(N[C@H]1CCC(=O)N([C@H](CSc2ccccc2)Cc2ccccc2)CC1)OCc1ccccc1,0.399
19,COc1cccc(C(=O)COc2cccc(NC(=O)c3cccc([N+](=O)[O-])c3)c2)c1,2.87
20,CCCCn1c(N)c(N(CC(C)C)C(=O)C2CC(=O)N(Cc3ccco3)C2)c(=O)[nH]c1=O (centres unmarked),-8.62
21,O=C(O)c1cn(Cc2ccccc2)c2ccccc2c1=O,-43.6
22,CCC(C)N1CCC(Oc2ccc(C(=O)NCc3ccccn3)cc2)CC1 (centres unmarked),12.2
23,Cc1nn(C)c(C)c1/C=N/N=C1\CCC2C3CCc4cc(O)ccc4C3CCC12C (centres unmarked),13
